Experimental data published in patent publication US20130184251A1, “HETEROAROMATIC AND AROMATIC PIPERAZINYL AZETIDINYL AMIDES AS MONOACYLGLYCEROL LIPASE INHIBITORS” (Janssen Pharmaceutica, NV, priority 2009, published 2013).

Assays:
[1] = biological target: T1, purified mutant MGL (mut-MGLL 11-313 L179S L186S) (Homo sapiens, UniProt Q99685, L169S/L176S); settings: read-out: Ex. 3 (mutant) IC50
T1 sequence (Q99685 1-303 L169S/L176S): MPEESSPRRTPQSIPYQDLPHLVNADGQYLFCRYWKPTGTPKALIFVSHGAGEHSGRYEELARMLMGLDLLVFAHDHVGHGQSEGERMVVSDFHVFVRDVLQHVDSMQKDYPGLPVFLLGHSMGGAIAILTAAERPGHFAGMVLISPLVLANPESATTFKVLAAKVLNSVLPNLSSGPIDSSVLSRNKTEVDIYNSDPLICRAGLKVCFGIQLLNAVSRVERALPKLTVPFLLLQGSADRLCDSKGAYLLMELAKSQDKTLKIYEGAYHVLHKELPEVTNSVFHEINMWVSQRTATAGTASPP

[2] = biological target: T1, purified mutant MGL (mut-MGLL 11-313 L179S L186S); settings: read-out: Ex. 4 Kd
[3] = mutant MGL (mut-MGLL 11-313 L179S L186S)

| Compound | IC50 ([1]; mutant MGL, substrate 4MU-B) [µM] | Kd ([2]; ThermoFluor, mutant MGL) [µM] | IC50 [1, 3] [µM] | IC50 [1] [µM] | Kd [2] [µM] |
| --- | --- | --- | --- | --- | --- |
| O=C(C=Cc1ccc(SC(F)(F)F)cc1)N1CC(N2CCCN(c3ncccn3)CC2)C1 [Compound #206] | > 16.7 | 12.5 | – | – | – |
| CCCc1cc2cc(C(=O)N3CC(N4CCN(c5ccccn5)CC4)C3)ccc2n1C [Compound #213] | 0.81 | 4.55 | – | – | – |
| O=C(c1ccc2c(c1)CCCN2)N1CC(N2CCN(c3cccc(C(F)(F)F)c3)CC2)C1 [Compound #223] | > 17 | > 31.2 | – | – | – |
| O=C(c1ccc(-c2ccccc2)cc1)N1CC(N2CCCN(c3ncccn3)CC2)C1 [compound 83] | – | 2.38 | 2.8 | – | – |
| O=C(C=Cc1ccccc1)N1CC(N2CCN(c3ccccn3)CC2)C1 [Compound #207] | > 15.3 | 12.5 | – | – | – |
| O=C(c1ccc(C2CCCCC2)cc1)N1CC(N2CCN(c3ccc(C(F)(F)F)cn3)CC2)C1 [Compound #202] | > 15.3 | 25 | – | – | – |
| CC(C)Cc1ccc([C@H](C)C(=O)N2CC(N3CCN(c4ccccn4)CC3)C2)cc1 [Compound #219] | > 15.3 | > 76.7 | – | – | – |
| O=C(CC(c1ccccc1)c1ccccc1)N1CC(N2CCN(c3ccccn3)CC2)C1 [Compound #222] | > 15.3 | > 76.7 | – | – | – |
| O=C(c1ccccc1Cc1ccccc1)N1CC(N2CCN(c3ccccn3)CC2)C1 [Compound #217] | > 15.3 | > 76.7 | – | – | – |
| O=C(c1cc(-c2ccccc2)c(C(F)(F)F)s1)N1CC(N2CCN(c3ccccn3)CC2)C1 [compound 61, 1-(1-{[4-Phenyl-5-(trifruoromethyl)thiophen-2-yl]carbonyl}azetidin-3-yl)-4-pyridin-2-ylpiperazine] | – | 2.18 | 0.462 | – | – |
| O=C([C@@H]1CCCc2ccccc21)N1CC(N2CCN(c3ccccn3)CC2)C1 [Compound #218] | > 15.3 | > 76.7 | – | – | – |
| O=C(C1Cc2ccccc2C1)N1CC(N2CCN(c3ccccn3)CC2)C1 [Compound #221] | > 15.3 | 17.2 | – | – | – |
| c1ccc(N2CCCN(C3CN(c4ccc(N5CCCC5)cc4)C3)CC2)nc1 [compound 87, 1-Pyridin-2-yl-4-[1-(4-pyrrolidin-1-yl-phenyl)-azetidin-3-yl]-[1,4]diazepane] | – | 1.54 | 3.99 | – | – |
| CC(C)(C)OC(=O)N1CCC(Oc2ccc(N3CC(N4CCCN(c5ccccn5)CC4)C3)cc2)CC1 [compound 124, 4-{4-[3-(4-Pyridin-2-yl-[1,4]diazepan-1-yl)-azetidin-1-yl]-phenoxy}-piperidine-1-carboxylic acid tert-butyl ester] | – | – | – | 0.263 | 0.541 |
| O=C(Nc1cccc(C(=O)N2CC(N3CCN(c4ccccn4)CC3)C2)c1)C1CCCCC1 [Compound #203] | > 15.3 | 31.2 | – | – | – |

Like-named read-outs stand apart in the source and are kept apart here.
